Data on one compound can be found in PubChem BioAssay AID1963431 (Molecular Pharmacology Branch, DTP, NCI, 2024).

The source holds more than one record for some entries. They are shown here; other results are not. The source may hold further records. Values that stand side by side repeat one measurement in other runs, samples, wells, individuals or studies. Dates in brackets are months of testing. Signs of the kind (2×) give the number of equal values in this list.

For the experiment, the system named is Rh18 complex spheroid viability, percent test/control. Briefly: Anticancer human tumor Rh18 cell line growth inhibition [Asc].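 On all read-outs here: spheroids exposed to compound for 7 days.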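 On viability, T/C: 100% = DMSO vehicle control wells.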 Particulars: for viability, T/C: stronger effect = lower value. As for the experimental part: Multicellular complex tumor spheroid response to apoptosis pathway targeting inhibitors Alrizomadlin, Pelcitoclax, and Dasminapant in combination with a variety of drugs and investigational agents in selected tumor cell lines
The MDM2 inhibitor alrizomadlin, the Bcl-2/Bcl-xL inhibitor pelcitoclax, and the IAPs inhibitor dasminapant were evaluated both individually and in combination with standard of care and investigational anticancer small molecules within a complex spheroid model of solid tumors. . Complex spheroids include a stromal component modeled by human endothelial cells (HUVEC) and fibroblasts modeled by human mesenchymal stem cells (MSCs). The concentration ranges selected for each drug and investigational agent were based upon clinically achievable concentrations if the clinical Cmax of the agent was known.
Compounds. The drugs and investigational agents: alrizomadlin (APG-115; NSC831270), pelcitoclax (APG-1252; NSC835773), dasminapant (APG-1387;NSC834197), TAK-243 (NSC785004), copanlisib (NSC809693), olaparib (NSC753686), talazoparib (NSC767125), cobimetinib (NSC 768068), eltanexor (KPT-8602, NSC 794443), abemaciclib (NSC 768073), sotorasib (NSC818433), adagrasib (NSC 831453), MRTX-1133 (NSC 836407), Iadademestat (ORY1001, NSC 806812), and RMC-4630 (NSC839698), were obtained from the NCI Developmental Therapeutics Program Chemical Repository. The FDA-approved anticancer drug set is available from the Developmental Therapeutics Program at https://dtp.cancer.gov/organization/dscb/obtaining/available plates.htm. […] The stock solutions were prepared in dimethyl sulfoxide (DMSO, Sigma-Aldrich, St. Louis, MO, cat. D2650) at 800-fold the tested concentration and stored at -70 degrees C prior to their use. All drugs and investigational agents were tested over a range starting from a high concentration at or near the clinical Cmax and decreasing in half-log increments. If the clinical Cmax for an agent had not been determined, the highest concentration tested was 10 microM.
The patient-derived cancer (PDC) cell lines include five colon adenocarcinomas: 186277-243-T-J2-PDC, 616215-338-R-J1-PDC, 439559-082-T-J2-PDC, 463943-066-T-J2-PDC, and 519858-162-T-J1-PDC; three pancreatic carcinomas: 323965-272-R-J2-PDC, 521955-158-R6-J3-PDC, and 521955-158-R2-J5-PDC; two uterine sarcomas: 327498-152-R-J2-PDC and 993429-296-R-J1-PDC; two rhabdomyosarcomas: 755483-174-R-J1-PDC and 772245-204-R-J1-PDC; two soft tissue sarcomas: 126254-015-R-J1-PDC and 494315-158-R-J1-PDC; two malignant fibrous histiocytomas: 317291-083-R-J1-PDC and 596521-263-R-J1-PDC; two breast carcinomas: 171881-019-R-J1-PDC and 885512-296-R-J2-PDC; and one ovarian carcinoma: 6556581-035-R-J-PDC were obtained from the NCI PDMR, (https://pdmr.cancer.gov). The established cell lines HSSY-2 synovial sarcoma (RRID:CVCL 8719), SYO-1 synovial sarcoma (RRID:CVCL_7146), MPNST malignant peripheral neural sheath tumor were obtained from the Sloan Kettering Institute. The following established cell lines were purchased from the American Type Culture Collection (ATCC, Manassas, VA), Sor the received from the NCI repository:, PANC-1 pancreatic carcinoma (CRL-1469, RRID:CVCL_0480), OVCAR-5 ovarian carcinoma (RRID:CVCL_1628), OVCAR-8 ovarian carcinoma (RRID:CVCL_1629), , MCF-7 breast carcinoma (CRL-12584, RRID:CVCL_0031), MDA-MB-231 breast carcinoma (CRL-12532, RRID:CVCL_0062), NCI-H1876 small cell lung carcinoma (CRL-5902, RRID:CVCL_1503), NCI-H510A small cell lung carcinoma (HTB-184, RRID:CVCL_1565), NCI-H1417 (CRL-5869, RRID:CVCL_1469), and NCI-H196 small cell lung carcinoma (CRL-5823, RRID:CVCL_1509). Dr. Peter Houghton (Greehey Children's Cancer Research Institute, University of Texas Health Science Center, San Antonio, TX) provided Rh-18 rhabdomyosarcoma (RRID:CVCL_1659). Pooled donor human umbilical vein endothelial cells (HUVEC, Lonza, cat. CC-2519) and human mesenchymal stem cells (hMSC, Lonza, cat. PT-2501) were purchased from Lonza (Walkersville, MD).
Cell Culture. […]

In the case of `CNC(C)C(=O)NC1CN(S(=O)(=O)c2cccc(S(=O)(=O)N3CCC4CCC(C(=O)NC(c5ccccc5)c5ccccc5)N4C(=O)C(NC(=O)C(C)NC)C3)c2)CCC2CCC(C(=O)NC(c3ccccc3)c3ccccc3)N2C1=O` (stereo unspecified), the viability, T/C is, setting by setting: (compound alone 0.01 µM) 63.3, 57.9, 60.2, 71.1, 58.5, 67.1, 45.9, 62.1, 55.8, 61.5, 63.2, 65.3, 59.4% [2022-10] and 64% [2022-11]; (compound alone 0.0316 µM) 43.9, 48, 54, 59.7, 56.9, 59.9, 57.8, 62.3, 46.9, 60.8, 53.3, 37.5, 64% [2022-10] and 53.5% [2022-11]; (compound alone 0.1 µM) 41.9 (2×), 37.4, 44.8, 38.6, 56.3, 40.3, 44.7, 56.4, 33.1, 40.7, 51, 49.2% [2022-10] and 59.8% [2022-11]; (compound alone 0.316 µM) 44, 40.3, 66.8, 50.6, 45.7, 35.9, 43.1, 58.8, 35, 46.6, 39.3, 52.1, 32.5% [2022-10] and 67.2% [2022-11]; (compound alone 1 µM) 24.7, 39.8, 45.9, 49.7, 41.1, 44, 43.8, 43.6, 40.1, 35.8, 42.9, 47.9, 39.9% [2022-10] and 60.2% [2022-11]. Also, the half-inhibitory concentration (IC50) (usually the midpoint of a concentration-inhibition curve) (compound alone, run of 10/24/2022) is reported as > 1 µM, 72.7 nM, 219 nM, 56.4 nM, 14.5 nM, 592 nM, 17.2 nM, 74.8 nM, 44 nM, 26.3 nM, 93.2 nM.
